Experimental data taken from the supplement of paper PMC8728848.
Some of the results follow.

What was measured:
Test in all cases: glycan array binding signal (z-score within array); higher = stronger binding
Details in all cases: glycan notation: IUPAC condensed, linker removed
[1] = target: Gal(b1-4)GlcNAc(b1-3)Gal(b1-4)GlcNAc(b1-6)[Gal(b1-3)]GalNAc
Procedure, shortened: (§1)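 Glycan array data came from 3228 arrays in the Consortium for Functional Glycomics database, and only arrays with an available protein sequence were kept. Glycan names were put into IUPAC-condensed notation, and columns mapping to the same glycan were averaged. The binding signal is a within-array Z-score, averaged across arrays of one protein sequence run at different concentrations or buffers and across linkers. A negative Z-score can be read as non-binding.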

[2] = target: Gal(b1-4)GlcNAc(b1-3)Gal(b1-4)[Fuc(a1-3)]GlcNAc(b1-3)Gal(b1-4)[Fuc(a1-3)]GlcNAc
Procedure, shortened: as §1

[3] = target: Gal(b1-4)GlcNAc(b1-3)GalNAc
Procedure, shortened: as §1

[4] = target: Gal(b1-4)GlcNAc(b1-3)[Fuc(a1-3)GlcNAc(b1-6)]Gal(b1-4)Glc
Procedure, shortened: as §1

[5] = target: Gal(b1-4)GlcNAc(b1-3)[Gal(b1-4)GlcNAc(b1-6)]Gal(b1-4)GlcNAc
Procedure, shortened: as §1

[6] = target: Gal(b1-4)GlcNAc(b1-3)[GlcNAc(b1-6)]Gal(b1-4)GlcNAc
Procedure, shortened: as §1

[7] = target: Gal(b1-4)GlcNAc(b1-6)Gal(b1-4)GlcNAc
Procedure, shortened: as §1

[8] = target: Gal(b1-4)GlcNAc(b1-6)GalNAc
Procedure, shortened: as §1

[9] = target: Gal(b1-4)GlcNAc(b1-6)[Gal(b1-3)]GalNAc
Procedure, shortened: as §1

[10] = target: Gal(b1-4)GlcNAc(b1-6)[Gal(b1-4)GlcNAc(b1-3)]GalNAc
Procedure, shortened: as §1

Gal(b1-4)GlcNAc6P = target: Gal(b1-4)GlcNAc6P
Procedure, shortened: as §1

Gal(b1-6)Gal = target: Gal(b1-6)Gal
Procedure, shortened: as §1

Gal3S(b1-3)GalNAc = target: Gal3S(b1-3)GalNAc
Procedure, shortened: as §1

Gal3S(b1-3)GlcNAc = target: Gal3S(b1-3)GlcNAc
Procedure, shortened: as §1

[11] = target: Gal3S(b1-3)[Fuc(a1-4)]GlcNAc
Procedure, shortened: as §1

Gal3S(b1-4)Glc = target: Gal3S(b1-4)Glc
Procedure, shortened: as §1

Gal3S(b1-4)Glc6S = target: Gal3S(b1-4)Glc6S
Procedure, shortened: as §1

Gal3S(b1-4)GlcNAc = target: Gal3S(b1-4)GlcNAc
Procedure, shortened: as §1

[12] = target: Gal3S(b1-4)[Fuc(a1-3)]Glc6S
Procedure, shortened: as §1

[13] = target: Gal3S(b1-4)[Fuc(a1-3)]GlcNAc
Procedure, shortened: as §1

[14] = target: Gal3S(b1-4)[Fuc(a1-3)]GlcNAc6S
Procedure, shortened: as §1

Gal3S4S(b1-4)GlcNAc = target: Gal3S4S(b1-4)GlcNAc
Procedure, shortened: as §1

Gal3S6S(b1-4)GlcNAc = target: Gal3S6S(b1-4)GlcNAc
Procedure, shortened: as §1

Gal3S6S(b1-4)GlcNAc6S = target: Gal3S6S(b1-4)GlcNAc6S
Procedure, shortened: as §1

Gal4S(b1-4)GlcNAc = target: Gal4S(b1-4)GlcNAc
Procedure, shortened: as §1

Gal4S6S(b1-4)GlcNAc = target: Gal4S6S(b1-4)GlcNAc
Procedure, shortened: as §1

Gal6P(b1-4)GlcNAc = target: Gal6P(b1-4)GlcNAc
Procedure, shortened: as §1

Gal6S(b1-3)GlcNAc = target: Gal6S(b1-3)GlcNAc
Procedure, shortened: as §1

Gal6S(b1-3)GlcNAc6S = target: Gal6S(b1-3)GlcNAc6S
Procedure, shortened: as §1

Gal6S(b1-4)Glc = target: Gal6S(b1-4)Glc
Procedure, shortened: as §1

Gal6S(b1-4)Glc6S = target: Gal6S(b1-4)Glc6S
Procedure, shortened: as §1

Gal6S(b1-4)GlcNAc = target: Gal6S(b1-4)GlcNAc
Procedure, shortened: as §1

Gal6S(b1-4)GlcNAc6S = target: Gal6S(b1-4)GlcNAc6S
Procedure, shortened: as §1

GalNAc(a1-3)Gal = target: GalNAc(a1-3)Gal
Procedure, shortened: as §1

GalNAc(a1-3)GalNAc = target: GalNAc(a1-3)GalNAc
Procedure, shortened: as §1

[15] = target: GalNAc(a1-3)GalNAc(b1-3)Gal(a1-4)Gal(b1-4)Glc
Procedure, shortened: as §1

[16] = target: GalNAc(a1-3)GalNAc(b1-3)Gal(a1-4)Gal(b1-4)GlcNAc
Procedure, shortened: as §1

GalNAc(b1-3)Gal = target: GalNAc(b1-3)Gal
Procedure, shortened: as §1

[17] = target: GalNAc(b1-3)Gal(a1-4)Gal(b1-4)GlcNAc
Procedure, shortened: as §1

[18] = target: GalNAc(b1-3)Gal(a1-4)Gal(b1-4)GlcNAc(b1-3)Gal(b1-4)Glc
Procedure, shortened: as §1

[19] = target: GalNAc(b1-3)Gal(a1-6)Gal(b1-4)Glc
Procedure, shortened: as §1

GalNAc(b1-3)GalNAc = target: GalNAc(b1-3)GalNAc
Procedure, shortened: as §1

GalNAc(b1-3)GlcNAc = target: GalNAc(b1-3)GlcNAc
Procedure, shortened: as §1

GalNAc(b1-4)Gal(b1-4)Glc = target: GalNAc(b1-4)Gal(b1-4)Glc
Procedure, shortened: as §1

GalNAc(b1-4)GlcNAc = target: GalNAc(b1-4)GlcNAc
Procedure, shortened: as §1

B1: PfulAvr4 2 (Pseudocercospora fuligena) (protein)
chain: HHHHHHDYKDDDDKAKPIKPFACPPKDFTTTKCQGPVDCLYANPLSCLGYIQCVCDDDACSTATPYAKSCPTGLAWVEKLKRCDGIKKSACPKKMYEGS
In the case of B1, the “glycan array binding signal (z-score)” value [1] is reported as 0.036, the “glycan array binding signal (z-score)” value [2] is reported as -0.28 and the “glycan array binding signal (z-score)” value [3] is reported as -0.202. The “glycan array binding signal (z-score)” value [4] was -0.302, the “glycan array binding signal (z-score)” value [5] was -0.411 and the “glycan array binding signal (z-score)” value [6] was 5.97. The “glycan array binding signal (z-score)” value [7] was -0.246, the “glycan array binding signal (z-score)” value [8] was -0.217 and the “glycan array binding signal (z-score)” value [9] was 0.263. The “glycan array binding signal (z-score)” value [10] was -0.229, the “glycan array binding signal (z-score)” value (Gal(b1-4)GlcNAc6P) was -0.085 and the “glycan array binding signal (z-score)” value (Gal(b1-6)Gal) was -0.333. The “glycan array binding signal (z-score)” value (Gal3S(b1-3)GalNAc) was 0.098, the “glycan array binding signal (z-score)” value (Gal3S(b1-3)GlcNAc) was -0.314 and the “glycan array binding signal (z-score)” value [11] was -0.025. The “glycan array binding signal (z-score)” value (Gal3S(b1-4)Glc) was -0.127, the “glycan array binding signal (z-score)” value (Gal3S(b1-4)Glc6S) was -0.075 and the “glycan array binding signal (z-score)” value (Gal3S(b1-4)GlcNAc) was -0.22. For the same binder, the “glycan array binding signal (z-score)” value [12] was -0.272, the “glycan array binding signal (z-score)” value [13] was 0.108 and the “glycan array binding signal (z-score)” value [14] was 0.222. The “glycan array binding signal (z-score)” value (Gal3S4S(b1-4)GlcNAc) was -0.378, the “glycan array binding signal (z-score)” value (Gal3S6S(b1-4)GlcNAc) was -0.207 and the “glycan array binding signal (z-score)” value (Gal3S6S(b1-4)GlcNAc6S) was -0.34. The “glycan array binding signal (z-score)” value (Gal4S(b1-4)GlcNAc) was -0.417, the “glycan array binding signal (z-score)” value (Gal4S6S(b1-4)GlcNAc) was -0.372 and the “glycan array binding signal (z-score)” value (Gal6P(b1-4)GlcNAc) was -0.344. The “glycan array binding signal (z-score)” value (Gal6S(b1-3)GlcNAc) was -0.37, the “glycan array binding signal (z-score)” value (Gal6S(b1-3)GlcNAc6S) was 0.027 and the “glycan array binding signal (z-score)” value (Gal6S(b1-4)Glc) was -0.235. The “glycan array binding signal (z-score)” value (Gal6S(b1-4)Glc6S) was -0.383, the “glycan array binding signal (z-score)” value (Gal6S(b1-4)GlcNAc) was -0.285 and the “glycan array binding signal (z-score)” value (Gal6S(b1-4)GlcNAc6S) was -0.361. For the same binder, the “glycan array binding signal (z-score)” value (GalNAc(a1-3)Gal) was -0.345, the “glycan array binding signal (z-score)” value (GalNAc(a1-3)GalNAc) was -0.253 and the “glycan array binding signal (z-score)” value [15] was -0.301. The “glycan array binding signal (z-score)” value [16] was -0.251, the “glycan array binding signal (z-score)” value (GalNAc(b1-3)Gal) was -0.265 and the “glycan array binding signal (z-score)” value [17] was -0.178. For the same binder, the “glycan array binding signal (z-score)” value [18] was -0.24, the “glycan array binding signal (z-score)” value [19] was -0.38 and the “glycan array binding signal (z-score)” value (GalNAc(b1-3)GalNAc) was -0.221. For the same binder, the “glycan array binding signal (z-score)” value (GalNAc(b1-3)GlcNAc) was -0.272, the “glycan array binding signal (z-score)” value (GalNAc(b1-4)Gal(b1-4)Glc) was 0.532 and the “glycan array binding signal (z-score)” value (GalNAc(b1-4)GlcNAc) was -0.27.
